Reference: patent US20060088522A1, “Humanized anti-5T4 antibodies and anti-5T4/calicheamicin conjugates” (Wyeth, priority 2004, published 2006)

Target: T1, human 5T4 antigen (Homo sapiens, UniProt Q13641)
T1 sequence (Q13641 32-420): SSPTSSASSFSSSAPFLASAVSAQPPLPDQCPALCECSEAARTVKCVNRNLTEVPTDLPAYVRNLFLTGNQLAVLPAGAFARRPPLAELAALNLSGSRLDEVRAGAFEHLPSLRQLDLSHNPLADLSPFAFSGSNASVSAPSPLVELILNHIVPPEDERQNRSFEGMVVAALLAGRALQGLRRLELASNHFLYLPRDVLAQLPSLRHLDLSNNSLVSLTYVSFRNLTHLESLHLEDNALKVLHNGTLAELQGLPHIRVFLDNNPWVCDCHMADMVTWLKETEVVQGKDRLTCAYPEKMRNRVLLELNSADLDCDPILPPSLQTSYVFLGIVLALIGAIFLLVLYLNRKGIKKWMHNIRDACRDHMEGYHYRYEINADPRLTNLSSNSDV
Assay: BIACORE analysis (surface plasmon resonance), 5T4 immobilized on CM5 chip
Type: binding
Procedure: To assess the binding specificity and affinity of chimeric and humanized H8 antibodies, BIACORE® analysis was performed using human 5T4 antigen immobilized on a CM5 chip. BIACORE® technology utilizes changes in the refractive index at the surface layer upon binding of the antibody to the 5T4 antigen immobilized on the layer. Binding is detected by surface plasmon resonance (SPR) of laser light refracting from the surface. Analysis of the signal kinetics on rate and off rate allows the discrimination between non-specific and specific interaction. The concentration of antibody used was in the range of 12.5 nM to 200 nM. Chimeric, semi-humanized, and humanized H8 antibodies performed similarly to the murine H8 antibody in the BIACORE® assay.
The binding kinetics of murine H8, humanized H8, and humanized H8 calicheamicin conjugate were compared by plasmon resonance, essentially as described in Example 2. The conjugate sample contained 61 μg CalichDMH per mg protein, 1% free antibody, and 1.4% aggregate.

- kd (Table 8, off rate): 7.8e-05 s⁻¹
- ka (Table 8, on rate): 90000 M⁻¹ s⁻¹
B1: Humanized H8 version 1: humanized H8 heavy chain variable region version 1 and light chain variable region version 1 (antibody)
heavy: QVQLVQSGAEVKKPGASVKVSCKASGYSFTGYYMHWVKQSPGQGLEWIGRINPNNGVTLYNQKFKDRVTMTRDTSISTAYMELSRLRSDDTAVYYCARSTMITNYVMDYWGQGTLVTVSSASTKGPSVFPLAPCSRSTSESTAALGCLVKDYFPEPVTVSWNSGALTSGVHTFPAVLQSSGLYSLSSVVTVPSSSLGTKTYTCNVDHKPSNTKVDKRV[human IgG4 Fc with S228P (EU numbers) not written out]
light: DIVMTQSPDSLAVSLGERATINCKASQSVSNDVAWYQQKPGQSPKLLISYTSSRYAGVPDRFSGSGSGTDFTLTISSLQAEDVAVYFCQQDYNSPPTFGGGTKLEIKRTVAAPSVFIFPPSDEQLKSGTASVVCLLNNFYPREAKVQWKVDNALQSGNSQESVTEQDSKDSTYSLSSTLTLSKADYEKHKVYACEVTHQGLSSPVTKSFNRGEC
